Where “and” joins values, the source holds several entries; their conditions need not be identical. Equal entries are not always repeated. In all, about 110,000 compounds were measured (“z-score”: median about -0.1, highest 2% from about 2 on). The list shows a part of the results. Calls of active or inactive are those of the source.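 How the source made its calls: active means z-score in the third read window above 3 or below -3; inactive means the rest.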

The test has as its target Metabotropic glutamate receptor 8 (Rattus norvegicus) (UniProt P70579). The test can be described thus: rat mGluR8 modulators via GIRK flux, primary screen, cell-based, thallium flux, HTS (AID 488969). Conditions: HEK293 rat mGluR8, GIRK (G protein-gated inwardly rectifying potassium channel) thallium flux, FluoZin2; at 10 µM; stronger effect = higher value; submaximal glutamate (EC20) added with thallium.
UniProt P70579, sequence (P70579 whole entry, looked up): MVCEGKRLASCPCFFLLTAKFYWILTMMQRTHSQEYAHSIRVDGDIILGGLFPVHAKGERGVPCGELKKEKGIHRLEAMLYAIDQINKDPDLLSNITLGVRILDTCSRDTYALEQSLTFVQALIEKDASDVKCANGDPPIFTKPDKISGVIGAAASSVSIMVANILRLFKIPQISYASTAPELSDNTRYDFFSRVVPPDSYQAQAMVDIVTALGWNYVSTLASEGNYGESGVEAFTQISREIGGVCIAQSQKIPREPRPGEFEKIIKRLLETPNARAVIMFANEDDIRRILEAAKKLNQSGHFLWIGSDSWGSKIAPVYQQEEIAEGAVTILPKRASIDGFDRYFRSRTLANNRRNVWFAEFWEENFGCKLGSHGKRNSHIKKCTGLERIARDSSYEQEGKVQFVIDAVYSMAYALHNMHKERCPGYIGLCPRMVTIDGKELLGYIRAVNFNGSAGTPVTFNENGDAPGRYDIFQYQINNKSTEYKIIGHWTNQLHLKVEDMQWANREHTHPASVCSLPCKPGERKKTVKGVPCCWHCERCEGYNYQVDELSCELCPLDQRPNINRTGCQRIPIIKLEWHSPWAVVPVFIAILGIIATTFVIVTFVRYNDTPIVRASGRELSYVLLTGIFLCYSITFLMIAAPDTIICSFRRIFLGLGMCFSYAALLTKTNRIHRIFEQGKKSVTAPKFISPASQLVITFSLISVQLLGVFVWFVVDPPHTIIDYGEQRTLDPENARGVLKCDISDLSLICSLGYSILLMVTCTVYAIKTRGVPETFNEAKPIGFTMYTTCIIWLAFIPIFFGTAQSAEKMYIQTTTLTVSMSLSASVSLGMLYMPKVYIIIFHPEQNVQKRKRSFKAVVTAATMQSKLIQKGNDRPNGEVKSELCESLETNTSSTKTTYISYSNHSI
In the case of `COc1ccc(-c2nn(C)c(=O)c3ccccc23)cc1CNC(=O)c1ccco1`, the z-score is -2.21.

`C[C@@H]1C[C@H](O)c2cc(Cl)ccc2N1` returned a z-score of 0.163.

As for `CC(C)OCCCN(CC(O)c1ccccc1)CC(O)c1ccccc1` (centres undefined), the z-score was -0.0165.

`O=c1[nH]c(=O)n(Cc2ccco2)c2c1C(C(F)(F)F)(C(F)(F)F)N=C(c1ccc(F)cc1)N2`: the z-score is -0.176.

Take `C/C(CC(=O)NCc1ccco1)=N\NC(=O)Cc1ccc(Cl)cc1`: the z-score was -0.18.

Regarding `COc1ccc(-n2ncc3c(SCC(=O)N4CCN(c5ccccc5OC)CC4)ncnc32)cc1`, the z-score was 1.77. For `CCN(CC)CCn1c(NCc2cccc(OC)c2OC)nc2ccccc21`, the z-score came out at 0.875. The compound `Cc1ccc(SCC(=O)NCc2cccnc2)cc1` gave a z-score of 0.188. In the case of `COc1ccc(-c2cc(-c3ccccc3)c(C#N)c(S(C)(=O)=O)n2)cc1` it was 0.0878; in that of `CCN(CC)CCNC(=O)Cn1c(C)cc2ccccc2c1=O`, 0.122; in that of `Nc1cc(=O)nc(SCC(=O)N(C2CCCCC2)C2CCCCC2)n1-c1ccccc1`, -0.245.

As for `O=C(COC(=O)CC(c1ccccc1)c1ccccc1)NCc1ccccc1`, the z-score was -0.205.

The compound `CC(=O)c1ccc(OCCCC(=O)N2CCN(S(=O)(=O)c3cccs3)CC2)cc1` displayed a z-score of -0.431. In the case of `COc1ccc(NC(=O)CN(Cc2ccccc2)S(C)(=O)=O)cc1OC` it was 0.083; in that of `CCC1(C)Cc2c(sc3nc(NN)n(C)c(=O)c23)CO1` (centres undefined), -1.76; in that of `COc1ccc(Cl)cc1N1C(=O)/C(=C\c2sccc2C)N=C1SCC(=O)NC1CC1`, -0.15. In the case of `Cc1ccc(Cl)cc1NC(=O)CC(O)(C(F)(F)F)C(F)(F)F` it was -2.38.

As for `CCCCC(=Nc1ccc(N)cc1)C1=C(O)C(C(=O)OC)C(C)(C)CC1=O` (centres undefined), the z-score was 0.177. In the case of `COc1cc(S(=O)(=O)N2CCCCC2)ccc1NC(C)=O` it was -0.134. Next, `COc1cc2c(cc1OC)C(SC)=NC(C)(C)C2`: -0.855. Next, `COc1ccc(-c2nnc(SCC(=O)NCc3cccs3)n2CC(C)C)cc1`: -0.108.

On to `COc1ccccc1N1CCN(Cc2nc3ccsc3c(=O)[nH]2)CC1`, for which the z-score is -0.0828. Next, `CCCS(=O)(=O)c1c(S(=O)(=O)CCC)c2ccccn2c1C(=O)OC`: 0.0483. In the case of `CCc1cccc2c(C(=O)COC(=O)/C=C/c3ccccc3OC)c[nH]c12` it was -0.246; in that of `COc1ccc(S(=O)(=O)N(CCCN2CCCC2=O)Cc2cc3c(C)ccc(C)c3[nH]c2=O)cc1`, -0.459; in that of `Cc1ccc(/C=C/C(=O)NCCCc2ccccc2)cc1`, -0.256.

`O=c1cc(CSc2nnc(COc3ccccc3Cl)o2)nc2sccn12` yielded a z-score of 0.0759. Next, `O=C(O)c1[nH]c2ccc(Cl)cc2c1CC(=O)N1CCN(c2ccccc2)CC1`: 0.938. Consider `CCOC(=O)/C(C#N)=C/c1cn(CCOc2ccccc2)c2ccccc12`, for which the z-score turned out to be 0.751. Next, `O=c1[nH]c2c(s1)C(c1ccc(O)cc1)C1C3CCC(C3)C1S2` (centres undefined): -0.888. As to `O=C(Nc1ccc2nc(-c3cccs3)[nH]c2c1)c1cccs1`, the z-score was -1.4. In the case of `CC1CCC(C(C)C)C(OCC(O)CN2CCOCC2)C1` (centres undefined) it was 0.174; in that of `CC1CCc2c(sc(NC(=O)CSc3ncnc4c3cnn4-c3ccccc3Cl)c2C#N)C1` (centres undefined), -0.899. Next, `O=C(c1cc2nc(-c3ccccc3)cc(C(F)(F)F)n2n1)N1CCOCC1`: 0.057; `Cc1sc2nc3n(c(=O)c2c1C)CCCS3`: -0.0491; `COc1ccc(S(=O)(=O)Nc2ccccc2OC)cc1NC(=O)c1cc2ccccc2oc1=O`: -0.0577. In the case of `Cc1ccc(N(CC(=O)NC(C)c2ccccc2)S(=O)(=O)c2cccs2)cc1` (centres undefined) it was -1.88.

`Cc1ccccc1C(C(=O)NC1CCCC1)N(C(=O)Cc1cccs1)c1ccc2c(c1)OCCO2` (centres undefined) displayed a z-score of -0.335.

In the case of `COc1ccc2c(c1OC)C(=O)OC2CC(=O)c1ccc2c(c1)OCO2` (centres undefined), the z-score was -0.196.

In turn, `CCOC(=O)Cn1cnc([N+](=O)[O-])n1` displayed a z-score of -0.225. Next, `Cc1ccc(C(=O)c2c(NC(=O)CSc3nnc(N)s3)sc3c2CCCC3)cc1`: -0.372; `Cc1cc(C(=O)Nc2c(C)n(C)n(-c3ccccc3)c2=O)c(C)o1`: -0.168. In the case of `O=c1nc(N2CCOCC2)ccn1Cc1ccc(Br)cc1` it was -0.23; in that of `CCCCn1c(SCC(=O)Nc2cc(C)on2)nnc1-c1cccnc1`, 2.11; in that of `O=C(Nc1ccc2oc(-c3ccccc3F)nc2c1)c1ccc2c(c1)OCCO2`, -0.681. Next, `Cc1cc(N/N=C/c2ccccc2Cl)nc(NCc2ccccc2)n1`: 0.191; `COc1cccc(C(=O)NN2C(=O)C3C4C=CC(O4)C3C2=O)c1` (centres undefined): -0.249. Regarding `Cc1cccc(C)c1NC(=O)CCS(=O)(=O)c1cccc2nsnc12`, the z-score stood at 0.588. In turn, `O=S1(=O)c2ccccc2N=NN1Cc1ccc(Cl)c(Cl)c1` came in with a z-score of 0.153. In turn, `O=C(CCC1CCCC1)NC1CCCCC1` yielded a z-score of -0.0138. As for `CCCOc1ccc(C2c3c(oc4cc(C)c(C)cc4c3=O)C(=O)N2CCCN2CCOCC2)cc1` (centres undefined), the z-score was -0.881. Next, `COc1cc(N(C)C)c(NC(C)=O)cc1C(=O)O`: 0.018; `CCOc1ccc(Nc2cc(C)nc(-n3nc(C)cc3C)n2)cc1`: 0.647; `O=C(Cn1nnc(-c2ccccc2NC(=O)c2ccccc2)n1)Nc1ccc2c(c1)OCCO2`: 0.418. In the case of `O=C(CNC(=O)Cc1ccccc1)NCC(=O)OCC(=O)c1ccc(Cl)cc1` it was -0.138. In the case of `NC(=O)c1ccc(C(F)(F)F)n(Cc2ccccc2Cl)c1=O` it was -0.152; in that of `Cc1ccc(C(=O)COC(=O)CNC(=O)C(c2ccccc2)c2ccccc2)cc1[N+](=O)[O-]`, 0.162. For the compound `COc1ccc(S(=O)(=O)N(C(C)=O)c2ccc(OC(C)=O)c3ccccc23)cc1[N+](=O)[O-]`, the z-score is -0.812. For `CCOC(=O)CSc1ncc(-c2ccccc2)cn1`, the z-score was -0.0802. Regarding `Cc1ccc(C(O)(C(=O)NNc2ccc3ccccc3n2)c2ccc(C)cc2)cc1`, the z-score was -0.153 and 0.52. Turning to `COc1cc(C(=O)N2CCC(N3CCCCCC3)CC2)cc(OC)c1OC`, the z-score is -0.523.

The compound `CCOC(=O)c1c(C)oc2ccc(O)cc12` gave a z-score of -0.208.

`CC1CCc2nn(CC(=O)N3CCN(C(=O)c4ccco4)CC3)cc2C1` (centres undefined): the z-score is active: 3.92. In the case of `CC(=O)/C(N=Nc1ccc2c(c1)OCO2)=C(\C)O` it was -0.631; in that of `CC(=O)N1CCc2cc3nc(C)cc(C)c3cc21`, 0.771.

`CCN(c1ccc(NC(=O)CCNC(=O)c2ccco2)cc1)C(C)C` showed a z-score of -0.0798.

The compound `CCC(=O)Nc1cc(Cl)ccc1C(=O)O` registered a z-score of 0.022.

In turn, `CS(=O)(=O)N(CC(=O)Nc1ccc2c(c1)OCO2)c1ccc2c(c1)OCO2` yielded a z-score of -0.0648. For `CCN1C(=O)/C(=C/c2ccc(C)s2)NC1=S`, the z-score is active: 15.1. `Cc1ccc(Cc2cnc(NC(=O)/C(C#N)=C/c3ccc(-c4ccccc4[N+](=O)[O-])o3)s2)cc1` had a z-score of 0.0461. Next, `CC(C)c1ccc(NCCC(=O)c2cccs2)cc1`: -0.0347; `Nn1cnc2c(c1=O)C1(CCCCC1)Cc1ccccc1-2`: -0.149. The compound `Cc1cccc(S(=O)(=O)c2c(N)n(/N=C/c3ccccc3)c3nc4ccccc4nc23)c1` had a z-score of 0.75.

As for `CCOC(=O)C1(CC)NC(c2ccco2)C2C(=O)N(CC)C(=O)C21` (centres undefined), the z-score was -0.0611. Turning to `Cc1cccc(NC(=O)c2sc3nc(-c4ccccc4)cn3c2C)n1`, the z-score is -0.607.

`Cc1nn(Cc2ccccc2Cl)c2sc(C(=O)Nc3ccccc3N3CCOCC3)cc12` registered a z-score of -0.429. Next, `CCOC(=O)c1nn(-c2sc(C(=O)OC)c(C)c2C(=O)OC)cc1O`: -0.249. In the case of `O=C1CSC(=S)N1N=C1CCCCCC1` it was -0.1; in that of `Cc1nn(Cc2ccc(F)cc2)c(C)c1NC(=O)c1cc(-c2ccc3c(c2)OCO3)on1`, -0.162; in that of `C=CCNC(=O)C1CCN(c2c([N+](=O)[O-])cc(C(F)(F)F)cc2[N+](=O)[O-])CC1`, -0.149. With `COc1ccc(N2C(=O)c3ccccc3NC23CCC(C)CC3)cc1` (centres undefined), the z-score is 0.784.

Consider `CCCc1nc2c(c(=O)c3ccccc3n2C)c(=O)n1-c1ccc(F)cc1`, for which the z-score is -1.04. In the case of `Clc1ccc(Br)cc1-c1nc(-c2cccnc2)no1` it was -0.126; in that of `Cc1ccc(C(O)(C(=O)NN(C(=O)c2ccccc2)c2ccccc2)c2ccc(C)cc2)cc1`, 0.0414. Next, `Cn1nnnc1SCC(=O)Nc1ccccc1N1CCOCC1`: -0.235. Consider `CCCS(=O)(=O)N1CCC(C(=O)N2CCCC2)CC1`, for which the z-score was -1.16.

Turning to `O=C(Nc1ccc(F)c(Cl)c1)c1ccc2c(=O)n3c(nc2c1)CCCCC3`, the z-score was -0.847. Next, `Cn1ncc2nc[nH]c(=O)c21`: 0.284. In the case of `COc1ccc2c(c1OC)C(=O)OC2CC(=O)c1ccc(O)c(O)c1` (centres undefined) it was -0.528. In the case of `O=C(CSc1ncn[nH]1)Nc1ccccc1Sc1ccccc1` it was -0.218; in that of `COc1ccc(Cn2c(=O)oc3ccc(C)cc32)cc1OC`, -0.379. With `O=C(CSc1nnc(CNc2ccc(Cl)cc2)o1)Nc1nc2ccccc2s1`, the z-score was -0.147. In turn, `C=CCNC(=O)C1(c2ccccc2)CC1(Cl)Cl` (centres undefined) showed a z-score of -0.161. `O=C(CSCc1cccc(Br)c1)N/N=C/c1ccc2c(c1)OCO2` had a z-score of -0.0411. Next, `COc1ccc2c(c1OC)C(=O)N1N=C(c3ccccc3)CC21` (centres undefined): -0.169. `C=CCn1c(CCNC(=O)c2ccccc2F)nnc1SCC(=O)Nc1nc(C)cs1`: the z-score came to 0.0314. As for `O=C(COC(=O)c1n[nH]c2ccccc12)NCc1ccccc1`, the z-score is -1.01.

Turning to `CCCCNCCOCCSc1ccc(Cl)cc1`, the z-score was 0.846. Next, `CC(C)N1C(=O)C(Cc2nc3ccccc3c(=O)n2-c2ccccc2)c2ccccc21` (centres undefined): 0.0492; `Cc1ccc(-n2c(SCC(=O)NCc3ccco3)nc3sc(C)c(C)c3c2=O)cc1`: -1.38.

In turn, `CCCC1(c2ccccc2)NC(=O)N(CCN2C(=O)c3ccccc3C2=O)C1=O` (centres undefined) came in with a z-score of 0.0548.

`CC(NC(=O)c1ccc(F)cc1)c1nc2ccccc2n1Cc1ccccc1F` (centres undefined): the z-score was -0.254. `COc1ccc(C2(CNC(=O)CCC(=O)O)CCCC2)cc1OC`: the z-score was -0.181. Compound `Cc1cc2cc3c(cc2nc1SCc1ccc(C(=O)O)cc1)OCCO3` came in with a z-score of -0.554. In the case of `COCCCNC(=O)C1CCCN(C(=O)Nc2ccc(OC)cc2)C1` (centres undefined) it was -0.392; in that of `CS(=O)(=O)N(CCc1ccccc1)CC(=O)NCc1ccccn1`, 0.492.

For `Cc1ccc(-c2nn(-c3ccccc3)cc2C2CC(c3cccs3)=NN2C(=O)CCC(=O)O)cc1` (centres undefined), the z-score was -0.41. For the compound `COc1ccccc1CNC(=O)c1ccccc1N(C)S(C)(=O)=O`, the z-score is -0.011. In the case of `CCn1c(=S)[nH]c2nc3c(cc2c1=O)CCCC3` it was 2.31.
